Source: paper PMC11995724, “Antibiotic target discovery by integrated phenotypic and activity-based profiling of electrophilic fragments” (Cell chemical biology, 2025)
Screen size: about 3,200 compounds; about 75 (2%) showed an effect of 50% or more. The list shows a part of the results.

These compounds were tested on T1, S. aureus MSSA476. Conditions: relative growth, OD600, TSB; 25 µM; inhibitor.
T1 construct: MSSA476
Design: species or system S. aureus MSSA476 (TSB) or V. cholerae SAD30 (LB); 384-well bacterial growth screen at 25 uM, OD600 relative to DMSO control

SMILES	% of control remaining
C=CC(=O)NCCN1CCOCC1C (centres unmarked) [2-I05, N-[2-(3-methylmorpholin-4-yl)ethyl]prop-2-enamide]	108.268%
CC(Cl)C(=O)N1CCn2c(nn(CC(=O)N(C)C)c2=O)C1 (centres unmarked) [7-K17, 2-[7-(2-chloropropanoyl)-3-oxo-2H,3H,5H,6H,7H,8H-[1,2,4]triazolo[4,3-a]pyrazin-2-yl]-N,N-dimethylacetamide]	89.4819%
Cn1cc(C(=O)CCl)nn1 [10-M19, 2-chloro-1-(1-methyl-1H-1,2,3-triazol-4-yl)ethan-1-one]	87.5%
Cc1nc2n(n1)CCN(C(=O)C(C)Cl)C2 (centres unmarked) [5-A04, 2-chloro-1-{2-methyl-5H,6H,7H,8H-[1,2,4]triazolo[1,5-a]pyrazin-7-yl}propan-1-one]	114.026%
O=C(CCl)c1c[nH]c2ccncc12 [10-K05, 2-chloro-1-{1H-pyrrolo[3,2-c]pyridin-3-yl}ethan-1-one]	112.813%
O=C1C=CC(=O)N1c1cc([N+](=O)[O-])ccc1Cl [10-H15, 1-(2-chloro-5-nitrophenyl)-2,5-dihydro-1H-pyrrole-2,5-dione]	119.687%
COc1ccc([N+](=O)[O-])cc1NC(=O)CCl [4-P17, 2-chloro-N-(2-methoxy-5-nitrophenyl)acetamide]	109.767%
C=CC(=O)NC[C@@H]1C[C@H]1C1CCCCC1 [1-O19, N-{[(1R,2S)-2-cyclohexylcyclopropyl]methyl}prop-2-enamide]	104.791%
C=CC(=O)N1CCC(C(=O)NCc2ccc(-c3n[nH]c(C)n3)cc2)CC1 [3-M21, N-{[4-(5-methyl-1H-1,2,4-triazol-3-yl)phenyl]methyl}-1-(prop-2-enoyl)piperidine-4-carboxamide]	122.246%
C=CC(=O)Nc1cccc(C(O)C(F)(F)F)c1 (centres unmarked) [1-M16, N-[3-(2,2,2-trifluoro-1-hydroxyethyl)phenyl]prop-2-enamide]	129.407%
O=C1C=CC(=O)N1c1ccc(F)cc1F [10-F15, 1-(2,4-difluorophenyl)-2,5-dihydro-1H-pyrrole-2,5-dione]	135.938%
COc1cccc(NC(=O)CN(C)C(=O)CCl)c1 [5-A03, 2-chloro-N-{[(3-methoxyphenyl)carbamoyl]methyl}-N-methylacetamide]	86.7031%
C=CC(=O)NC[C@@H]1C[C@H](F)CN1Cc1ccnn1C [2-E05, N-{[(2S,4S)-4-fluoro-1-[(1-methyl-1H-pyrazol-5-yl)methyl]pyrrolidin-2-yl]methyl}prop-2-enamide]	90.1654%
N#CC1=C(N2CCOCC2)SC(c2ccc([N+](=O)[O-])cc2)NC1=O (centres unmarked) [9-D08, 6-(morpholin-4-yl)-2-(4-nitrophenyl)-4-oxo-3,4-dihydro-2H-1,3-thiazine-5-carbonitrile]	103.071%
CC(Cl)C(=O)N1CCCC(CNC(=O)Nc2ccc(F)cc2)C1 (centres unmarked) [6-J22, 3-{[1-(2-chloropropanoyl)piperidin-3-yl]methyl}-1-(4-fluorophenyl)urea]	93.2195%
C=CC(=O)N1CCC(O)(c2ccccc2)CC1 [1-E15, 1-(4-hydroxy-4-phenylpiperidin-1-yl)prop-2-en-1-one]	97.0549%
CC(Cl)C(=O)N1Cc2ccccc2OCC1C (centres unmarked) [7-F11, 2-chloro-1-(3-methyl-2,3,4,5-tetrahydro-1,4-benzoxazepin-4-yl)propan-1-one]	98.5871%
Cc1cc(C(=O)CCl)c(C)n1-c1ccc(Cl)c(Cl)c1 [10-D18, 2-chloro-1-[1-(3,4-dichlorophenyl)-2,5-dimethyl-1H-pyrrol-3-yl]ethan-1-one]	-0.3125%
CCCCNC(=O)C(C#N)=Cc1cc(F)ccc1F [8-K08, N-butyl-2-cyano-3-(2,5-difluorophenyl)prop-2-enamide]	71.3693%
C=CC(=O)Nc1ccc2c(c1)N(CC#N)CC2 [1-C19, N-[1-(cyanomethyl)-2,3-dihydro-1H-indol-6-yl]prop-2-enamide]	98.4615%
O=C1C=CC(=O)N1c1ccc(OC(F)F)cc1 [10-P11, 1-[4-(difluoromethoxy)phenyl]-2,5-dihydro-1H-pyrrole-2,5-dione]	110.313%
C=CC(=O)Nc1ccccc1C(=O)N(C)C(C)C [3-H17, N-methyl-2-(prop-2-enamido)-N-(propan-2-yl)benzamide]	126.426%

SMILES	% of control remaining
CC(Cl)C(=O)NC(c1ccc(F)cc1)c1cnn(C)c1 (centres unmarked) [7-C19, 2-chloro-N-[(4-fluorophenyl)(1-methyl-1H-pyrazol-4-yl)methyl]propanamide]	93.2496%
C=CC(=O)NCC1(c2ccccc2)CC1(F)F (centres unmarked) [2-O20, N-[(2,2-difluoro-1-phenylcyclopropyl)methyl]prop-2-enamide]	85.6397%
N#CC(=Cc1cnc2ccc(C#N)cn12)C(=O)Nc1ccc(F)cc1 [9-E20, 2-cyano-3-{6-cyanoimidazo[1,2-a]pyridin-3-yl}-N-(4-fluorophenyl)prop-2-enamide]	103.67%
Cc1cc(C(=O)CCl)c(C)n1Cc1ccc(F)cc1 [10-N17, 2-chloro-1-{1-[(4-fluorophenyl)methyl]-2,5-dimethyl-1H-pyrrol-3-yl}ethan-1-one]	4.6875%
O=C(CCl)Nc1nc2c(s1)CCc1ccccc1-2 [6-D03, 2-chloro-N-{4H,5H-naphtho[1,2-d][1,3]thiazol-2-yl}acetamide]	107.902%
O=C(CCl)NC1CCC(O)(c2cccc(F)c2)CC1 (centres unmarked) [5-A11, 2-chloro-N-[4-(3-fluorophenyl)-4-hydroxycyclohexyl]acetamide]	92.8962%
C=CC(=O)N1CC(OCc2nc(C)no2)C1 [1-P18, 1-{3-[(3-methyl-1,2,4-oxadiazol-5-yl)methoxy]azetidin-1-yl}prop-2-en-1-one]	106.549%
C=CC(=O)NCCC(=O)N1CCN(c2ccccc2Cl)CC1 [3-J22, N-{3-[4-(2-chlorophenyl)piperazin-1-yl]-3-oxopropyl}prop-2-enamide]	88.4632%
N#CC(=CC1=Cc2ccccc2OC1)C(=O)NCc1ccccc1 [9-F08, N-benzyl-3-(2H-chromen-3-yl)-2-cyanoprop-2-enamide]	121.348%
C=CC(=O)N1CC(NC(=O)c2ccoc2CC)C(C)(C)C1 (centres unmarked) [1-L22, N-[4,4-dimethyl-1-(prop-2-enoyl)pyrrolidin-3-yl]-2-ethylfuran-3-carboxamide]	111.473%
C=CC(=O)NC1C(=O)OCC1(C)C (centres unmarked) [1-E08, N-(4,4-dimethyl-2-oxooxolan-3-yl)prop-2-enamide]	107.253%
C=CC(=O)N(Cc1sc(C)nc1C)[C@@H](C)[C@H]1COC(C)(C)O1 [1-B15, N-[(1S)-1-[(4S)-2,2-dimethyl-1,3-dioxolan-4-yl]ethyl]-N-[(2,4-dimethyl-1,3-thiazol-5-yl)methyl]prop-2-enamide]	95.2967%
CC1CCCN(Cc2ccc(CNC(=O)CCl)cc2)C1.Cl (centres unmarked) [6-K04, 2-chloro-N-({4-[(3-methylpiperidin-1-yl)methyl]phenyl}methyl)acetamide hydrochloride]	97.6585%
CC1CCCN(C(=O)C(NC(=O)C(C)Cl)c2cnn(C)c2)C1 (centres unmarked) [7-G12, 2-chloro-N-[1-(1-methyl-1H-pyrazol-4-yl)-2-(3-methylpiperidin-1-yl)-2-oxoethyl]propanamide]	89.7959%
CC(Cl)C(=O)NCc1nn(-c2ccccc2)c2c1CCC2 (centres unmarked) [7-P05, 2-chloro-N-({1-phenyl-1H,4H,5H,6H-cyclopenta[c]pyrazol-3-yl}methyl)propanamide]	91.9937%
COc1ccc(NC(=O)c2ccccc2NC(=O)CCl)cc1 [4-L05, 2-(2-chloroacetamido)-N-(4-methoxyphenyl)benzamide]	88.8042%
C=CC(=O)NCC1CCC2(CCCOC2)O1 (centres unmarked) [2-O13, N-({1,7-dioxaspiro[4.5]decan-2-yl}methyl)prop-2-enamide]	103.742%
CSc1ccc(C=C(C#N)C(=O)Nc2ccc3c(c2)OCCO3)cc1 [9-L05, 2-cyano-N-(2,3-dihydro-1,4-benzodioxin-6-yl)-3-[4-(methylsulfanyl)phenyl]prop-2-enamide]	120.449%
C=CC(=O)NCc1cccc(CNS(C)(=O)=O)c1 [3-F11, N-{[3-(methanesulfonamidomethyl)phenyl]methyl}prop-2-enamide]	106.574%
CC(Cl)C(=O)NCC1c2ccccc2C(=O)N1Cc1ccccc1 (centres unmarked) [6-H20, N-[(2-benzyl-3-oxo-2,3-dihydro-1H-isoindol-1-yl)methyl]-2-chloropropanamide]	89.122%
CN(CCOc1ccccc1F)C(=O)CCl [6-C03, 2-chloro-N-[2-(2-fluorophenoxy)ethyl]-N-methylacetamide]	79.2195%
COc1cc(CN(C(=O)CCl)C2CC2)ccc1O [7-H18, 2-chloro-N-cyclopropyl-N-[(4-hydroxy-3-methoxyphenyl)methyl]acetamide]	94.1915%
